These results are taken from paper PMC12136788.

The list shows a part of the results.

First the molecules themselves.
B1: chr14:21838049:21838050:-_ENSG00000092201_ENST00000216297|hu_mus|motif|central (ssRNA)
RNA: GGGAGUUCUACAGUCCGACGAUCGUUGAGCUCACCGUCCUCUUUCACAGCAAUGGUGUAUGCCACAACAGCGCUGAUGUCGGCUUUGUCAAAGCCCUCCUUGUUGAGACAAUCACUCCAGCUCUUCAUGAACUCUCCAGGGAACAACAGAGGAUUGAGCAUCA
B2: 173317039_173317159_757_CDS_ENSG00000113742_ENST00000334035|human|control|control (ssRNA)
RNA: GGGAGUUCUACAGUCCGACGAUCUGUCAACACUGGAGAUUCGAUCCUUAUUUUCUCCUUCCCAUUGCCAUUUUCCGAAGAAUUGUCCCCUUGAUUUUCUUCUGAUUUUGCCUUCUCUGUUUCAGGCAGUAUUCCAGCUUCCUGCAACAGAGGAUUGAGCAUCA
B3: chr10:33190432:33190433:-_ENSG00000150093_ENST00000302278|hu_mus|hu_hu_hu_mus_True|38_58 (ssRNA)
RNA: GGGAGUUCUACAGUCCGACGAUCUACAUUUUCCAAACCUGCAUGUGAAUAAAACCCUGGCCACAGAGCCCCAAAACUACCUAACUGUGACUAAGAUAAUUGCUACUUGAGCUUGGUGUUGCAAAAUCCGCCUGAGUAGGAUUCCAACAGAGGAUUGAGCAUCA
B4: chr7:149068622:149068623:-_ENSMUSG00000025139_ENSMUST00000001950|mus_hu|mus_mus_mus_hu_False|28_78 (ssRNA)
RNA: GGGAGUUCUACAGUCCGACGAUCGUGAGGCCUCUGAGUGUGGCUUGUGGUCUGUCCUGUCUGCAGUUUGUUAAUAUCACGGAACAUACCAUCUAGAACGUUCCAGUCUGCCUGACUACCUUCAUUCCCAAUGGAGAAGAAAUCCAACAGAGGAUUGAGCAUCA
B5: chr2:153237265:153237266:-_ENSMUSG00000061411_ENSMUST00000109784|mus_mus|mus_mus_mus_hu_False|98_108 (ssRNA)
RNA: GGGAGUUCUACAGUCCGACGAUCAAAAAAAAGAAAAGAAAAGUGUCCUUGUGCCCAAAGUCUCAGGUGCUUGGAGUGUGGCUAGAAACAGCUCUUUUGGAUCCCACCUCUUUCAAAAACAAAAUGUACCAACUGGUGAGGCAGCAACAGAGGAUUGAGCAUCA
B6: 117129742_117132029_945_3pUTR_ENSMUSG00000020184_ENSMUST00000020408|mouse|control|control (ssRNA)
RNA: GGGAGUUCUACAGUCCGACGAUCAUCCUGAUCCAGGCAAUCACCAGAAUGCUCACUUACGCCAUCGUCAAGAUCCUGAUGCGAGGGCGUCUCUGUGGACUCGCUGCUGCUGCUGCUACUGCUGCUGCUGCCGCCGCUGCACAUCAACAGAGGAUUGAGCAUCA

This test has as its target T1, UNK ZnF1-3 (human, UniProt Q9C0B0 31-174).
T1 sequence: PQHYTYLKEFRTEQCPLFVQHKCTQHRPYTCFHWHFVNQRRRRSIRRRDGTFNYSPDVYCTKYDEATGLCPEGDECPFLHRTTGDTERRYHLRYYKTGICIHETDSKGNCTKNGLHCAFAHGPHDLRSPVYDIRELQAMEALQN
Put plainly: nsRBNS (natural sequence RNA bind-n-seq); RBNS binding buffer (assumed for nsRBNS): 25 mM Tris pH 7.5, 150 mM KCl, 3 mM MgCl2, 0.01% Triton X-100, 500 ug/ml BSA, 20 U/ml SUPERase-In, 4 C; UNK is unkempt and MSI1 is Musashi-1; names of the RNAs are library labels; protein concentration not given here; high values mean tight binding.
For B1, the binding signal is 1.26 enrichment R.

Consider B2, for which the binding signal turned out to be 0.349 enrichment R.

The molecule B3 returned a binding signal of 1.02 enrichment R.

Turning to B4, the binding signal is 0.705 enrichment R.

For the molecule B5, the binding signal was found to be 2.43 enrichment R.

B6 had a binding signal of 0.607 enrichment R.
